The source of these data is the RNAGym collection of RNA variant scans (doi:10.7554/elife.90254).

The source gives no read counts; variants with many changes may rest on few reads.

B1: LINE1-full (parent)
chain: UACGUAGGUGGUUUUCCCCUGAUAGUGCUAAGGGGGCCUGGAAGUUUGGACUGGGCAGAGCUCAACACAGCGUGGCAAAGUGGCUGUGGCUAGACUGCCUCUCUGGAUUCCUCGUCACUCAGCAGGGCAUCUCUGAGAGAAAUGCC

Variants of B1 are the subject of the data set. Kind of data set: self-cleavage, relative activity (ratio to wild type); higher = more cleavage; in vitro, sequencing; the parent is a self-cleaving ribozyme.
For A22G A42U U115C, the self-cleavage is 1.13.

A22G A67U A92G U96A U100C: the self-cleavage is 0. The same measure for U20C A24U U45C: 1.77; for A22G C61U A78G U143C: 0.1. To U20A U47A U108C belongs 1.35; to U20C U46C U104C, 2.3; to A22G C84G U85C G89A U130C U134A, 0.16. For U20C A57G G80A A136U, the self-cleavage is 2.02. The same measure for U20A U46A U62C: 0.03; for A22G G35U A50G C110U: 0.7. The same measure for A22G A57G C98A U115A A136G: 0.12; for U20G U45C A79G: 1.89. To U20G A77G U132A belongs 2.59; to U20G G75U A124G, 0.67; to U20C A31U A77G, 1.26. As for U20C G36C U109C, the self-cleavage worked out at 1.08.

Turning to G21A A94G U102A G106A A117G U132G A142U, the self-cleavage worked out at 0. To U20C G82A U132C belongs 1.9.

As for U20C G41A A42G, the self-cleavage is 1.56. The same measure for U20C A42G A59U G82A: 0.96; for U20C C38U U39A A59G A140G: 0.08; for A22G A59G A107G A140G: 1.02. The same measure for A22C U29A U62C: 0.05; for A22G U26A A78G: 1.02. To U20A U73A A142G belongs 0.23; to U20A U81A A136G, 1.84; to U20C U26C U62C C95A A107U A138G, 0.03. As to U20C U132C A136U, the self-cleavage turned out to be 1.19. The same measure for U20C A67U U73C A79C: 0.84; for U20G A107G A142G: 1.84.

For A22G A57G C123U, the self-cleavage is 0.69. For the variant A22G A57G A129U U134G, the self-cleavage was 1.84.

Take U20C A43G U115C: the self-cleavage came to 2.3. To A22G A65G U143C belongs 0; to A22G A42G U62C C128A, 0.1.

As to U20G A69C G125A, the self-cleavage stood at 0.04.

Turning to A22G U39C A77G, the self-cleavage came out at 2.76. The same measure for U20A U115A C118U: 1.08; for A22G A50U C101A U132C: 1.36; for A22G A78G A141G: 0.57. To U20C U100C A136U belongs 2.74. Turning to U20C U46C G60A U62C G72A C84U U143A, the self-cleavage is 0.04. Regarding U20G A65G U109A G114U, the self-cleavage stood at 0.02. The same measure for U20C U85A A107U A124U U143C: 0.05; for A22G G36U U45A A57C G93C: 0.02. The same measure for U20C G35A A64G: 0.2; for U20C A121U C145G: 1.36; for A22G A79G U134C: 1.16. To A22G U45A U62C belongs 0.14; to U20C U100C U109C, 0.89. For the variant U20C U62C U100A A136G A142G, the self-cleavage worked out at 0.13. The same measure for U20A U108G G126A: 0.18. The same measure for U20G U23A A69U A79G: 0; for A22G U26C U109A: 0; for U20C G41A U73G A94G A141G: 0.45. The same measure for G21A U23C C38A: 1.11; for A22G A57U C118A: 0.1. With U20C U23A G125A U134G, the self-cleavage was determined as 1.41. The same measure for A22G G125A C146U: 0.79. To U20C U47C A138G belongs 1.57; to A22C U46C A142G U143C, 0.99; to U20G A59U A78U A138U, 0.94. On to U20C U39C U52A U132C, for which the self-cleavage amounted to 1.96. To G21U U73G U100A G114U U119A belongs 0.86; to G21A A79U U96C, 0.21. Turning to U20A U52A U91C A94G U143C, the self-cleavage was determined as 0.48.

In the case of A22G G34A A141G, the self-cleavage was determined as 1.01. The same measure for U20C C37U A136G: 0.4.

Consider U20A U62C U87A, for which the self-cleavage was 0.08. The same measure for U20A U81G U96C G139U: 0.09; for U20A U62C U108C: 0; for G21A A43U A67G G72A U85A U96A G127A: 0.05. To A22G A65U U102A U104A U112C belongs 0.2.

For the variant U20C G41A A140G, the self-cleavage came to 1.03. The same measure for U20C A57U A67G C95U: 0.04; for U20C U29C U115A A121G A124U: 1.31; for G21A A22G U39C U87C C128U: 0.13.

U20C A65G U134A: the self-cleavage was found to be 0.26. As for U20C A42U U73C A136G, the self-cleavage was determined as 0.35.

On to A22G G35A G82A, for which the self-cleavage worked out at 1.58. To U20C A31U C101U belongs 1.58.

On to U20C A50G U73C, for which the self-cleavage was 0. To U20C U73C A94U U130C A138G U143A belongs 0.77. To U20C U52A A59U belongs 0.6; to A22G A43G A77G, 1.56; to U20C U26C A141G, 0. The same measure for A22G A30G U39C: 0.92; for A22G G60A A78G: 0. For A22G A69U U96A U132C, the self-cleavage came out at 0.03.

Consider A22G U29C A43U U45A U73A, for which the self-cleavage is 2.05. To G21A U39C A64G G88U U96C A121U A136G belongs 0.05. The same measure for U20C A59G U73A C99U: 0.02. The same measure for A22G A57C C128U: 0.12; for A22G U45C U62A A77G A117C: 0. For the variant U20C C61A A77G A92G, the self-cleavage was determined as 0. To U20C A69G U85A belongs 0.45; to A22G A31U A64G, 0.31. To U20C A42G U73G A129U belongs 1.24; to U20A U91C A129G, 1.91; to A22G U23A A64U U100C U109C A129G, 1.25. To G21A U73A U115C A140G belongs 1.3; to A22G A69G C101A C128U U143C, 0.19; to U20C U108C A117U, 1.64. U20C A42G U102A A140U: the self-cleavage was determined as 0.78.

As for A22G A24U A69G, the self-cleavage came to 0.92.

For U20C A22U U85C, the self-cleavage came out at 0. To A22G G72U A117G belongs 2.22; to U20G G25A C133A A140G, 0.43; to U20C A31G G40U A69G U81C G125U U143A, 0.84. In the case of A22G U39C U91A G114U, the self-cleavage was determined as 0.6.

For A22G A78G U96A, the self-cleavage is 0.18. As to U20C U29C A64U U85A, the self-cleavage is 0.03.

In the case of A22G G33C U39A, the self-cleavage was found to be 1.88.

With A22G A50G A124G, the self-cleavage came to 0.71.

Take U20C G86C U102G: the self-cleavage was 0.03. To U20C A31U A64G U100C belongs 0. To U20A U104C C131U belongs 0.47; to G21A G53A U73A U100C A129G, 1.16; to A22G G114A G135A, 0.3. As for A22G A67C G88A A94C, the self-cleavage was 0. To A22G G53A U134C A141U belongs 1.01.

Turning to U20C A69U A140G, the self-cleavage is 0.

With U20A U109A U130C, the self-cleavage stood at 0.73.

For A22G A121G A140G, the self-cleavage was 1.58.

Consider A22G U26C A77U A94U U100C C146U, for which the self-cleavage was found to be 0.42. The same measure for U20C G32A A69U: 0.04.

For G21A U81G U119A, the self-cleavage is 1.3.

U20C G55C A78G U130C: the self-cleavage was 0. To U20C A42G A57U A78G belongs 0.06; to U20C G34U U100A A124U, 1.2; to U20G U62C A138G, 0.09.

As to U20C U73C A141G, the self-cleavage worked out at 1.97. With A22G U26A A92G, the self-cleavage was found to be 0.16. On to U20C U39A A43G, for which the self-cleavage stood at 0.66. The same measure for U20C A31U U143C: 1.3; for U20C U96C U143C: 0.07; for A22G U45A U96C: 0.09. In the case of U20C U26C A140G, the self-cleavage was 0.78. The same measure for A22G U29A A43U G126C: 1.35. The same measure for U20C A30G U100C: 1.25.

In the case of U20A U45G U96A, the self-cleavage amounted to 0.05. The same measure for U20G C63A U104C U130C: 0.21; for A22G C116A G122C A124U: 0.24. To U20A U39A G86A belongs 0.1; to A22G A43G G74A U96C A136G, 0.07; to U20C A30G U81A, 1.43. The same measure for U20C U47C U104C: 2.14; for U20C A64U U130C: 0.8; for A22G A77U U81C U132C: 1.93.

For the variant U20C A22G A140G, the self-cleavage is 1.39. As to U20C G93A U96C U130C, the self-cleavage is 0. The same measure for U20G U62C U73A: 0.1. The same measure for U20C C51A U130A: 1.28; for U20C A65G A69G A138G: 0.

Regarding A22G A64U U119C, the self-cleavage came out at 0.55. To A22G A57G U132C belongs 1.6.

Turning to A22G U29C G93U, the self-cleavage is 0.12. To A22G G34A G54A U73A belongs 0.32; to U20C U26C U132C, 0.85.

For the variant U20C G122A U132C U143A, the self-cleavage amounted to 1.82. To A22G A31U G82A belongs 0.51; to A22G G36A U96C G135A, 0.18.

Regarding A22G A42G U45C A129G, the self-cleavage was 1.02. For the variant U20G G35U A140G A142G, the self-cleavage was 1.

On to U20A U81C U104C G105A G114A U115C A117U, for which the self-cleavage turned out to be 1.23. The same measure for U20C A64G U104A: 0.22; for U20G A42G G54A A107U A142G: 0.66.
